In assay [1] the target is full-length NRBP1, differently tagged versions (fig. S8C) (human) (UniProt Q9UHY1). In words: co-IP; co-expression of differently tagged versions of full-length NRBP1 and NRBP2; co-immunoprecipitation (fig. S8C).
Assay [2] concerns the target full-length NRBP2, differently tagged versions (fig. S8C) (human) (UniProt Q9NSY0). The description is as above.

By UniProt entry, the sequences of proteins in these tests, tags left out. Where a name states a change or a piece, a line headed by the entry shows the natural chain unless it says otherwise.
UniProt Q9UHY1: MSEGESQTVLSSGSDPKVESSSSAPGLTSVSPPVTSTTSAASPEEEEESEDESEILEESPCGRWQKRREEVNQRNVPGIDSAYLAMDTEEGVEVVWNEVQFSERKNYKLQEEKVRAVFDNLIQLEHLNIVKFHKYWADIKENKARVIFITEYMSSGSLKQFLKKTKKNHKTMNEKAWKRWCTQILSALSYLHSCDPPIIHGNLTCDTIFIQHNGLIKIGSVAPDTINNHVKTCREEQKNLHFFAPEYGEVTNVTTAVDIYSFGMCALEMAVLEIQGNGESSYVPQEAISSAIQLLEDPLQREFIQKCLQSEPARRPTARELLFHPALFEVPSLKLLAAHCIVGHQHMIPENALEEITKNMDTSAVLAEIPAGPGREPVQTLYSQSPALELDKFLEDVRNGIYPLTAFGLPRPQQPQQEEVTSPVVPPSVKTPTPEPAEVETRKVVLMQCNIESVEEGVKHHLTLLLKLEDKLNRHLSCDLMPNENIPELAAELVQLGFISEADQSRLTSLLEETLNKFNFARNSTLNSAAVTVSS

No constants are given. Whether binding was seen depends on the method and setting. In cells and extracts the contact can be indirect. Some entries that bind do so weakly or less than the wild type. Sequences can lack the tags named with a protein.

B1: full-length NRBP2, differently tagged versions (fig. S8C) (protein, UniProt Q9NSY0 1-501)
chain: MAAPEPAPRRAREREREREDESEDESDILEESPCGRWQKRREQVNQGNMPGLQSTFLAMDTEEGVEVVWNELHFGDRKAFAAHEEKIQTVFEQLVLVDHPNIVKLHKYWLDTSEACARVIFITEYVSSGSLKQFLKKTKKNHKAMNARAWKRWCTQILSALSFLHACSPPIIHGNLTSDTIFIQHNGLIKIGSVWHRIFSNALPDDLRSPIRAEREELRNLHFFPPEYGEVADGTAVDIFSFGMCALEMAVLEIQTNGDTRVTEEAIARARHSLSDPNMREFILCCLARDPARRPSAHSLLFHRVLFEVHSLKLLAAHCFIQHQYLMPENVVEEKTKAMDLHAVLAELPRPRRPPLQWRYSEVSFMELDKFLEDVRNGIYPLMNFAATRPLGLPRVLAPPPEEVQKAKTPTPEPFDSETRKVIQMQCNLERSEDKARWHLTLLLVLEDRLHRQLTYDLLPTDSAQDLASELVHYGFLHEDDRMKLAAFLESTFLKYRGTQA
In the case of B1, the binding result in assay [1] and in assay [2] was “binds” in each case.

(Values after publication PMC12266122.)
